Among all 110,000 compounds or so, about 230 (0.21%) showed an effect of 50% or more. The list shows a part of the results.
These molecules were tested against DPAP1 (Plasmodium falciparum, UniProt Q8IIJ9) (assay: primary screen, percent inhibition; read by cleavage of a fluorogenic dipeptide substrate; higher = more effect of the substance).
Parameters: species or system P. falciparum D10 trophozoite lysates; single well
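Note: 30 min substrate incubation versus DMSO and 10 µM JCP410 controls.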

Chain of DPAP1 (Q8IIJ9 whole entry, looked up): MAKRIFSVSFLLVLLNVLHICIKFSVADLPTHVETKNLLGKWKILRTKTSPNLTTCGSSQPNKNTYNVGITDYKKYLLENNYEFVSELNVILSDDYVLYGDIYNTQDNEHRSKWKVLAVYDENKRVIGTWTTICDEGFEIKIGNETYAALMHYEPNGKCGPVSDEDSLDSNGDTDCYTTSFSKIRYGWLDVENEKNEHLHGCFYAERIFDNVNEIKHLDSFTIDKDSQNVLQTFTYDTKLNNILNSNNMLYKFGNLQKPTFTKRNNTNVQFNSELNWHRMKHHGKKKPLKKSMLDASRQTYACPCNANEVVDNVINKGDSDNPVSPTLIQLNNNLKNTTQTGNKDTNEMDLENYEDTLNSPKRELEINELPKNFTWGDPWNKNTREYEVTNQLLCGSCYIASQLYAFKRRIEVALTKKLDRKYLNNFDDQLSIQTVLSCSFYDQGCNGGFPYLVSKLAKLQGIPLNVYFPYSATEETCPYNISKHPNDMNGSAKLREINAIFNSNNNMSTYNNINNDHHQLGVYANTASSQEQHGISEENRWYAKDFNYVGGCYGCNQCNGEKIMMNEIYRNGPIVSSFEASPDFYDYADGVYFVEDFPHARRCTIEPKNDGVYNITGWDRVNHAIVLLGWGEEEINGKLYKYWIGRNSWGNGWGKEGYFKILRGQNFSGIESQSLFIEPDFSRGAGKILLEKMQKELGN

Compound	% Inhibition @ 10 uM
Cc1c(CNC(=O)c2cccc(Br)c2)cnn1C	4.49%
Cc1ccc(-c2onc(C)c2C)cc1S(=O)(=O)N1CCOCC1	-4.51%
CCCCc1nc2ccccc2c(=O)n1-c1ccc(OC)cc1	4.67%
CCOc1ccc(NC2OC(CO)C(O)C2O)c([N+](=O)[O-])c1 (centres unmarked)	6.31%
COc1ccc(CN2CCN(Cc3cccc(C)c3)CC2)c(OC)c1OC	53.3%
CCC1CCCCN1CCCNC(=O)c1ccc(CS(=O)(=O)c2ccccc2C)o1 (centres unmarked)	0.458%
OC1(c2ccc(Br)cc2)CCN(Cc2ccccc2)CC1	6.26%
COc1ccccc1Cn1nnc2c(O)nc(C3CCN(C(=O)c4ccccc4Cl)CC3)nc21	1.12%
Cc1ccccc1NC(=O)c1onc2c1CCCC2	4.31%
CCCOc1ccc(C(=O)C2=C(O)C(=O)N(c3ccccn3)C2c2ccc(OC)cc2)cc1C (centres unmarked)	4.74%
CCOc1ccc(Nc2nc(N)nc(CN(C)C3CCCCC3)n2)cc1	4.31%
Cc1cc2nc(NC3=NCN(Cc4ccc(Cl)cc4)CN3)nc(C)c2cc1C	0.0539%
COc1cc(C2C(C#N)=C(N)Oc3[nH]nc(-c4cccnc4)c32)cc(Br)c1O (centres unmarked)	2.49%
CCC(CC)C(=O)Nc1ccc(NC(=O)C(CC)CC)cc1	5.69%
CC(C)CC(NC(=O)c1cccc(NC(=O)Nc2cccc(C(=O)NC(CC(C)C)C(=O)NCC#N)c2)c1)C(=O)NCC#N (centres unmarked)	-11%
Cc1ccc(COc2ncnc3[nH]cnc23)c(C)c1	-3.09%
CCNC(=O)CN(C)S(=O)(=O)c1ccc(OC)c(OC)c1	2.86%
Cc1cccc(-n2nc3c(c2NC(=O)/C=C\c2ccc4c(c2)OCO4)CSC3)c1C	-4.32%
CC(C)C[C@H](NC(=O)c1ccc(-c2csc(N=C(N)N)n2)cc1)C(=O)N[C@@H](CCCCNC(=O)OCc1ccccc1)C(=O)O	-1.41%
CC(C(=O)NCCc1ccc(Cl)cc1)n1ccc2cc(S(=O)(=O)N3CCCC3)ccc21 (centres unmarked)	-1.39%
O=c1c2nccnc2nc(SCc2cccc(Cl)c2)n1Cc1ccc2c(c1)OCO2	-5.01%
COc1ccc(C2C3=C(O)CCCC3=Nc3nc(SCc4ccc(C(=O)O)cc4)nn32)cc1 (centres unmarked)	1.62%
COC(=O)c1cnn2c1NCN(Cc1ccccc1Cl)C2	3.96%
Cn1c2ccccc2c2cnn(CC(=O)NCCC3=CCCCC3)c(=O)c21	-7.36%
COCCCNC(=O)Nc1cn(CC(C)C)c(=O)c2ccccc12	-2.71%
O=C1c2ccccc2NC(c2ccc3c(c2)OCO3)N1c1ccccc1 (centres unmarked)	-2.97%

Compound	% Inhibition @ 10 uM
CCOc1ccccc1C1C(C(=O)OC)=CN(C(C)C)C=C1C(=O)OC	-1.48%
Cc1ccccc1-n1nnnc1-c1ccc(-c2nnnn2-c2ccccc2C)cc1	-0.818%
CSc1ccc(C2C(C#N)=C(N)Oc3cc(N)ccc32)cc1 (centres unmarked)	7.65%
O=C(NC1(C(F)(F)F)C(=O)Nc2c1c(=O)[nH]c(=O)n2-c1ccc(F)cc1)c1ccccc1F (centres unmarked)	0.475%
c1ccc2c(c1)c(N1CCOCC1)nn1nnnc21	5.86%
O=C(CN1CC(c2ccccc2)CC1=O)NC1C2CC3CC(C2)CC1C3 (centres unmarked)	-0.833%
O=C(O)c1ccc(-c2ccc(O)c(F)c2)cc1	0.0538%
O=C(CN(Cc1ccccc1)S(=O)(=O)c1ccc(Br)cc1)N1CCCCCC1	5.12%
Cc1[nH]c2ccccc2c1CN1CCCC(C(N)=O)C1 (centres unmarked)	3.68%
COc1ccccc1CNC(=O)c1nn(C)c2c1CS(=O)(=O)c1ccccc1-2	1.79%
O=C(NC1CCCCCC1)c1ccc2c(c1)OCO2	-4.41%
COc1ccc(/C=C2\CCC(C3CCCC3)C2=O)cc1OC (centres unmarked)	4.06%
CCOC(=O)COc1ccccc1C(C)=O	3.42%
N#Cc1ccccc1N1C(=O)C2C3C=CC(C3)C2C1=O (centres unmarked)	4.3%
CC(=O)c1cc2cc(Br)ccc2oc1=O	-0.546%
O=C1OC2(CCCC2)OC(=O)C1=Cc1ccc(Br)cc1	-5.28%
O=[N+]([O-])c1ccc(O)c(CN2CCCCCC2)c1	-1.78%
CCOC(=O)NS(=O)(=O)c1cnccc1Sc1cccc(C)c1	5.17%
C=CCc1cc(/C=C2/NC(=O)N(CC(=O)Nc3cccc(C)c3)C2=O)cc(OC)c1O	29.4%
Cn1ncc(Cl)c1C(=O)N1CCc2ccccc21	-3.19%
CC1CCC(N2CCC(C(N)=O)CC2)CC1 (centres unmarked)	-4.75%
COc1cc(C2CC(=O)Nc3ccc4ccccc4c32)ccc1OCC(=O)Nc1ccccc1 (centres unmarked)	-0.522%
O=C(NC1(C(F)(F)F)Oc2cc(Cl)c(Cl)cc2O1)N1CCCC1	3.51%
CCCCn1c(C)c(C(C)=O)c2cc(OC)ccc21	0.35%
Cc1ccc(S(=O)(=O)c2nnn3c2nc(N2CCC(C)CC2)c2sccc23)cc1C	-5.57%
O=C(NCc1cccs1)C1CCN(S(=O)(=O)c2ccc3nc(O)ccc3c2)CC1	5.39%

Compound	% Inhibition @ 10 uM
Cn1cccc1CNCc1cccnc1	-1.72%
CC(C)C[C@H](NC(=O)N1CCN(c2ccccc2F)CC1)C(=O)NCC#N	-0.207%
CCC(C#CCN1CCOCC1)OC(C)=O (centres unmarked)	5.32%
CCNC(=S)N1CCn2cccc2C1c1cccs1 (centres unmarked)	-0.0419%
CC(C)CC(=O)Nc1sc2c(c1C#N)CCCCC2	2.01%
CCOC1CC(C)(C)Oc2ccc3oc(C(=O)NCCN4CCCCCC4)c(C)c3c21 (centres unmarked)	-11%
Cc1c(C(=O)NCC2CCCO2)oc2c1-c1nn(Cc3ccc(Cl)cc3)cc1CC2 (centres unmarked)	7.38%
Cc1n[nH]c(C)c1Nc1cnn(C23CC4CC(CC(CC(=O)O)(C4)C2)C3)c(=O)c1Cl	-5.27%
C=CCOc1c(Br)cc(CNC(C)(C)C)cc1OC	3.8%
Cc1nn(CCC(=O)NCCC2=CCCCC2)c(=O)c2nn(-c3ccccc3)c(C)c12	-8.76%
O=C1c2ccccc2C(O)N1CCN1CCOCC1 (centres unmarked)	-4.69%
COc1ccc(C)cc1N(CC(=O)N1CCOCC1)S(C)(=O)=O	-1.07%
CCc1ccc(-c2ncnn2-c2ccc(Cl)cc2)cc1	3.05%
CN(C)c1ccc(C2C(C(=O)c3ccccc3)=C(O)C(=O)N2c2ccccc2)cc1 (centres unmarked)	0.35%
CC(C)CCNC(=O)c1cnn(-c2cccc(F)c2)c1-n1cccc1	-4.55%
CC1(C)CC(O)=C(C(=S)Nc2ccccc2)/C(=N/CCc2ccccc2)C1	-7.3%
Brc1ccccc1OCCCN1CCOCC1	3%
CCOc1ccccc1N1CCN(C2CCN(C)CC2)CC1	3.68%
CC(C)n1cc2c(c1-c1ccccc1)c(=O)n(C)c(=O)n2C	-4.26%
CCN1CCN(c2nc3c(c(=O)n(C)c(=O)n3C)n2C(C)C)CC1	0.627%
OCCN1CCN(c2nc(NCC3CCCO3)c3ccccc3n2)CC1 (centres unmarked)	-6.39%
CS(=O)(=O)c1nc(S(=O)(=O)c2ccc(Cl)cc2)c(N2CCN(CCO)CC2)s1	-0.522%
Cc1cccc2c1cnn2C(=O)CCC(=O)NC1CCCc2ccccc21 (centres unmarked)	4.84%
CC(C)CC(C(=O)NCC#N)c1cccc(-c2cccc(Br)n2)c1 (centres unmarked)	4.63%
CCC1CCC(N2CC(C)OC(C)C2)CC1 (centres unmarked)	0.273%
CCC(C(=O)NCc1ccc(OC(C)C)cc1)n1nc(C)c2sc3ccccc3c2c1=O (centres unmarked)	2.8%

Compound	% Inhibition @ 10 uM
O=C(NC1CCCCC1)C1CCC(CNS(=O)(=O)c2cccc3nsnc23)CC1 (centres unmarked)	2.93%
O=C1C2CC=CCC2C(=O)N1c1ccc(Br)cc1 (centres unmarked)	3.53%
CC1CC(C)CN(CCCNC(=O)c2ccc3c(c2)ncn3C2CCCC2)C1 (centres unmarked)	3.66%
CCC1(C(=O)c2ccc(Cl)cc2)C2c3cc(Br)ccc3OC(=O)C21C(C)=O (centres unmarked)	-0.703%
CCOC(=O)c1c(NC(=O)c2ccc(N)c([N+](=O)[O-])c2)sc2c1CCCC2	-1.97%
CCOc1ccc(CNc2ccc(OCC)cc2)cc1	-10.7%
COc1ccc(CNC(=O)CNS(=O)(=O)c2ccc(OC)cc2)cc1	5.43%
CC(C)CN(CC(C)C)c1nnc(NC(=O)NC2CCCC2)s1	5.42%
COc1cccc(NC(=O)CCC(=O)Nc2cccc(OC)c2)c1	-3.41%
C=CCNc1oc(/C=C/c2ccc(OCC)cc2)nc1C#N	4.83%
COc1ccc(C2=CC(c3ccccc3OC(F)F)n3ncnc3N2)cc1 (centres unmarked)	0.0842%
COc1cc(C(=O)Nc2sc3c(c2C(N)=O)CCCCC3)cc(OC)c1OC	7%
COc1ccc(NC(=O)OCC23COCN2COC3)cc1	-2.67%
CC1=CC(C)(C)N(Cc2ccc(CN3c4cc(C)ccc4C(C)=CC3(C)C)cc2)c2cc(C)ccc21	2.6%
N#Cc1cc2c(N)c(C(=O)Nc3ccc(F)cc3Cl)sc2nc1N	1.52%
CC(=O)OC(C#CCN1CCCCC1)c1ccccc1 (centres unmarked)	-2.32%
CN1CCN(CCC(=O)Nc2ccc(C3CCCC3)cc2)CC1	1.19%
Nc1ccc(-c2nc3ccc(N)cc3o2)cc1	1.42%
Nc1c(-c2nc(-c3ccccc3F)no2)nnn1-c1ccccc1C(F)(F)F	-2.15%
Clc1cccc(-c2nnc3sc(CCc4ccccc4)nn23)c1	4.28%
CC(C)OCCCn1c(=O)c2ccccc2n2c(CCC(=O)NCc3ccc(F)cc3)nnc12	0.277%
COc1ccc(-c2nc(S)c3c(n2)Oc2c(O)cccc2C3)cc1OC	10.6%
Cc1nn(-c2nc3c(C)cccc3s2)c(N)c1C#N	-3.63%

— article PMC6919601, “Identification of Plasmodium dipeptidyl aminopeptidase allosteric inhibitors by high throughput screening” (PLoS ONE, 2019)
